Reference: the supplement of paper PMC11417369
± gives the standard deviation of the averaged measurements. The list shows a part of the results.

system: PfAP2-I AP2 domain 3 (GST-tagged); assay: gcPBM binding intensity (ln(normalized median fluorescence intensity)); higher = stronger DNA binding
Summary of the method: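 GST-tagged P. falciparum DNA-binding domains, expressed in E. coli (about 25 μg on average), were applied for 1 h to an Agilent 4 × 180k array of primer-extended double-stranded 36-bp intergenic genomic probes plus negative controls. The binding buffer was 1× PBS with 1% milk, 0.2 mg/ml BSA, 0.5% salmon testes DNA and 0.03% Triton X-100. Bound protein was detected with Alexa488 anti-GST antibody and scanned at 488 nm. Binding intensity is the highest Masliner-normalised natural-log median intensity across replicate spots of either probe orientation.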

Row | Sequence | gcPBM binding intensity (ln)
1 | CAATACTAATTGTATACACACAAAAATATACCATAT [CACACA_site3326] | 7.64 ± 0.6
2 | AATTGATACCTTACATGTACATAATATATATAAATA [XGTACX_site321] | 8.25 ± 0.62
3 | GAACCATTTTTTGGTATACACACGTAATTATATAAT [CACACA_site8552] | 7.93 ± 0.092
4 | TTTTTACATACAAATTAACACACATATAGAAAAGAG [CACACA_site8570] | 8.58 ± 0.17
5 | TGTTAATTAAAACATCATTAATATTATTAAAAATAC [XGTACX_negctrl_site509] | 7.61 ± 0.44
6 | TCTTTTTTTACTTTCTTTTTTTTTTTTTTTTTTTTT [XGTACX_negctrl_site610] | 9.38 ± 0.057
7 | AATAAACATATATGTACACACATATACATATATATA [CACACA_site2848] | 8.03 ± 0.45
8 | TTTTTTTTTAATTATGCATGTAAATTATATATTATA [TGCATGCA_site335] | 8.55 ± 1.1
9 | TATTTATAATTAAATACACACATATATTATATATTT [CACACA_site616] | 7.5 ± 0.37
10 | TATATTAATTTATATCAACACACAAAATCAATATAC [CACACA_site8518] | 7.78 ± 0.54
11 | TTAGCTACACGCTAATGTACACAAATACAAAGAAAA [XGTACX_site3993] | 7.71 ± 0.51
12 | TATACGCATATATAAACACACAAAAAAAAAAAAAAA [CACACA_site2026] | 8.04 ± 0.77
13 | ATAAAATATTATATATATATATATATATATATATAT [CACACA_negctrl_site215] | 9.31 ± 0.74
14 | AAGAATGTTATATTATGATGCTGTCTTTTTTTAAGA [CACACA_negctrl_site251] | 7.46 ± 0.46
15 | AAATTATTTATATGTTGTACTTATCCATTTTTATAA [XGTACX_site7441] | 7.67 ± 0.57
16 | TAATTTTTTTTATTATGTACTTAATAAATGTTAATT [XGTACX_site365] | 7.63 ± 0.36
17 | TATATTTATAGACACACACACAAAAAAAAAAAAAAA [CACACA_site6818] | 8.23 ± 0.73
18 | TGAAGAATATTTTTCACACATATATATATATATATA [CACACA_site6080] | 9.59 ± 0.41
19 | TGAATATATAAATATGCACACTTCTATTATAAATAA [CACACA_site5796] | 8.88 ± 0.092
20 | TAACATATAAGTGTGTGTACGTACTGCGTATAATAT [XGTACX_site8597] | 8.53 ± 0.28
21 | GACAAACAATATGAATGTACATAAAAATATAACTAA [XGTACX_site1167] | 7.96 ± 0.56
22 | ATATATATATATATTGCACACACAATTATTATTATT [CACACA_site8721] | 10.4 ± 0.13

Row | Sequence | gcPBM binding intensity (ln)
23 | ATATATATATATATATGTACATATTTTTGTTTGATG [XGTACX_site51] | 9.24 ± 0.071
24 | CAGATATTCATATAAACACACATACAAATTATGTAT [CACACA_site4258] | 7.52 ± 0.45
25 | TATATATATAATTAAGCATGCTAGAAACCTTTGAAA [TGCATGCA_site489] | 8.23 ± 0.67
26 | TACAATCTAAAATACACACGCACACCGAAAAAAAAA [CACACA_site3520] | 8.13 ± 0.37
27 | TATTTATTGTGACACTTTTATTATTTTATGATAAAA [CACACA_negctrl_site37] | 7.83 ± 0.33
28 | GTGTTCTTGTTATACACACACATATATATATATATA [CACACA_site1032] | 9.31 ± 0.18
29 | TGAAAGAAGCATAAATGTACACACATATTTATATAT [XGTACX_site2645] | 7.76 ± 0.45
30 | GAGAAAAGGAAATAACGTACACATATGCATATCCAA [XGTACX_site5858] | 7.88 ± 0.64
31 | GTAATATTTTATAGTAGTACATATTTTTATTATTTT [XGTACX_site3333] | 7.75 ± 0.2
32 | GAGAGGTCAGTTCACAGTACCCAGAAACTCTACGAG [XGTACX_site2559] | 7.48 ± 0.51
33 | TTGTTCTTATTTCATTTTTATATGATATTTCATTAT [CACACA_negctrl_site1619] | 7.72 ± 0.41
34 | AATATTTATTTAATTTCACACAGGTCTTTTTTTTTT [CACACA_site5188] | 7.57 ± 0.63
35 | TTTTATCGTTTTTTTTTTTTTTTTTTTTTTTTTTTT [CACACA_negctrl_site1309] | 9.95 ± 0.29
36 | TTTGTTCATATGAAATGTACAAAAAAAAAAAAAAAA [XGTACX_site8849] | 8.03 ± 0.7
37 | CCTTATAAATACTGCACACATAAAATATATATTATC [CACACA_site2806] | 10.4 ± 0.46
38 | ATGTAGAAGTAATGCACACATATGTATTTATATATA [CACACA_site5391] | 10.9 ± 0.68
39 | AAAAAAATTAATATGTCAGCACATATATACATACAT [GTGCAC_negctrl_site110] | 7.73 ± 0.47
40 | TATATATATAAAAAAGCACACATACATACATACATA [CACACA_site8196] | 8.81 ± 0.46
41 | ATATAATATTTATATGTACACACCTTAATCCTTAAA [CACACA_site3555] | 7.95 ± 0.41
42 | ATAAACGTTTTTGAAAGTACATATCATTCATTTGAT [XGTACX_site200] | 7.62 ± 0.67
43 | TTTTAACATATAAGTACACACATATAATCAATCATA [CACACA_site2325] | 8.1 ± 0.12
44 | CGCACACGCAGACACACACACACATATAAATAAATA [CACACA_site7101] | 7.79 ± 0.31

Row | Sequence | gcPBM binding intensity (ln)
45 | AAAAAAAAGAAAAAAAAAAAAAAAAAAAAAAAAAAA [CACACA_negctrl_site489] | 8.35 ± 0.95
46 | ATTAGTATATTTCTCTGTACTTACATTAAAATATAA [XGTACX_site2217] | 7.85 ± 0.38
47 | TTTTATCAATAAATTCGTACACATGAACTAGAGAGT [XGTACX_site5758] | 8.21 ± 0.38
48 | TACATTCTAATAATTGCACACTGGTTATTAAAAGGA [CACACA_site1614] | 8.81 ± 0.071
49 | TTTTTATTTATATTTCATTGAAGTTAAATTATTTTA [XGTACX_negctrl_site575] | 7.29 ± 0.62
50 | TCCTTAAAATATGGTTGTACGTACATCCTAGGTGTT [XGTACX_site7068] | 7.98 ± 0.34
51 | AATTTAATATTCATCTCTAAAGCTATAACAATTACT [CACACA_negctrl_site1079] | 7.5 ± 0.61
52 | ATATATATATATAAATGTACAGGCTTATCTCTTATT [XGTACX_site1828] | 9.33 ± 0.28
53 | TGTATTATATATGTGTGTACATATTTTTTTTTTTTT [XGTACX_site3351] | 7.91 ± 0.25
54 | ATACAAATTTATATTTCACACATTATTATATACTTA [CACACA_site6034] | 8.04 ± 0.44
55 | TCTGAAAATTAGAAAAGTACAAAATGGTATAGGAAA [XGTACX_site4396] | 8.04 ± 0.57
56 | AAATTATTTCAAATGTTGCACTAAAAATAAAATTAT [GTGCAC_site9460] | 9.79 ± 0.24
57 | TGTTGTTCCAATTTTTGTACATAAAACATATATATA [XGTACX_site5719] | 8.07 ± 0.54
58 | AAAAAAAAAAATACTTGTACTTATATAATATATTAT [XGTACX_site8333] | 7.65 ± 0.18
59 | AAGAAAATATAAAATGCACACTATAAATTGTATATA [CACACA_site7928] | 8.73 ± 0.014
60 | AAAAAAAAAAAAAATTGTACATTAAATTAAAAGAAA [XGTACX_site8708] | 7.88 ± 0.28
61 | AAATTATTTCTTTGCGCATGTAGCTTTTATACTATT [TGCATGCA_site819] | 8.68 ± 0.69
62 | ACATAAATAATAAAAACACACATATGTACCTATATA [CACACA_site6982] | 7.87 ± 0.5
63 | AATACATGCTAAAAACGTACACGTATAAAATTATAT [XGTACX_site3169] | 7.97 ± 0.35
64 | TTTTTTTTTTTGGCTAGTACATATGTATTTAAAATG [XGTACX_site7770] | 8.08 ± 0.65
65 | GGTGAAATTATTTCTACATGCAGAAATAATTAATTA [TGCATGCA_site194] | 7.64 ± 0.56
66 | AATTTAATATAATGCACACATAAAAAAAAAATCAAA [CACACA_site1] | 10.9 ± 0.65

Row | Sequence | gcPBM binding intensity (ln)
67 | AAAAAAAAAAAAAAAACACACACATGCACATCATAT [CACACA_site8083] | 8.94 ± 0.53
68 | ACAAAATAAAACATCTGTACATATTATTATTATAAG [XGTACX_site4802] | 7.63 ± 0.38
69 | TATATTTATAACAACACACACAGATCATAAAACTGC [CACACA_site7086] | 7.87 ± 0.66
70 | AAAAAAAACACGCGCACACACACACCCACCCACCGA [CACACA_site2206] | 8.38 ± 0.77
71 | TATACACTTATTGGTGGTACAATATATAAATATATG [XGTACX_site3289] | 7.67 ± 0.23
72 | CAAAAGTAAGCACGCACACACAACATGAAATAAAAT [CACACA_site165] | 8.32 ± 0.49
73 | TTTTGATCTGAAGGAACCTAAAAAGGGAAGAGAAAA [CACACA_negctrl_site1656] | 7.56 ± 0.3
74 | ATTAGTATAATGTAACTTAGTTAATAGTGCTAATAT [CACACA_negctrl_site764] | 9.54 ± 0.4
75 | TTTTTAATATATTAGGTGCACAATAATACACTTTAT | 11.51 ± 0.064
76 | TATATATATATTTATACACACACATATATTTATATA [CACACA_site8054] | 8.89 ± 0.014
77 | AATAAACATAAATAAAAATTATAAAATATATATATG [CACACA_negctrl_site1709] | 7.49 ± 0.44
78 | ATATATATATATATTACACACTTTTTCTTTTTTTTT [CACACA_site2780] | 9.41 ± 0.35
79 | TTTACATTTCAGTAGACACACAAAAAATAATACTAA [CACACA_site512] | 7.75 ± 0.34
80 | AAAAAAAAATATACATATATATATATATATATATAT [CACACA_negctrl_site1763] | 9.29 ± 0.34
81 | GAAAAAAAAGCTTGCACACGTATTTGCTTTATGTAT [CACACA_site4931] | 8.11 ± 0.53
82 | TACATATATATATTATGTACATAAGGTTTGAGTTCA [XGTACX_site2726] | 7.8 ± 0.59
83 | TTTTTGGTATTATTGTGTACTTATAAATAATATAAT [XGTACX_site4019] | 8.19 ± 0.33
84 | CAAGTAGATATTATACGTACATATATATATATATAT [XGTACX_site8349] | 9.34 ± 0.57
85 | ATATATATAAATAATTGTACATAATAATAAAATATA [XGTACX_site4839] | 7.93 ± 0.56
86 | ATATTTTGTAACTATACACACATATTTATATTATAA [CACACA_site7433] | 7.79 ± 0.53
87 | ATATAAAATATTACGTGTACACATAAATAAAAATAA [XGTACX_site3746] | 8.46 ± 0.092
88 | TAAAAAATATACATTCGTACATATATATTATATATA [XGTACX_site7918] | 7.56 ± 0.41
